The list shows a part of the results.

The target in this assay is T1, OsWOX13 (Oryza sativa, UniProt Q5QMM3 1-267).
T1 sequence: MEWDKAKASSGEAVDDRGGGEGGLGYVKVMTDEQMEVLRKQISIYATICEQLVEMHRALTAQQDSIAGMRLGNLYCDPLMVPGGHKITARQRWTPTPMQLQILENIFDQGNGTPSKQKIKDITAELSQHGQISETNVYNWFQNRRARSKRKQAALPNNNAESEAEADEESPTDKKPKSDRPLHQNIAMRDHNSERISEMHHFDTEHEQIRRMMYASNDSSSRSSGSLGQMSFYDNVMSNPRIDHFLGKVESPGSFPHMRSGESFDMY
The assay can be described thus: protein-binding microarray (RPBM); PBS, 2% BSA, 51.3 ng/ul salmon testes DNA, 50 uM zinc acetate, 200 nM TF, 25 C, 1 h; high values mean tight binding. Conditions: protein: recombinant; tags: N-terminal polyhistidine and DsRed monomer fusion (pET32a); label: CyDye5-dUTP incorporated in the synthesized complementary strand; 3' TTTTT single-stranded linker to array surface; dsDNA, one strand shown. The procedure, abridged:
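Binding signal is reported as fluorescence intensity per feature (arbitrary units) from an Axon 4000B scanner. Incubation used 200 nM of each Ni–NTA-purified, N-terminally polyhistidine- and DsRed-fused transcription factor from E. coli BL21-CodonPlus on a double-stranded custom Agilent array for 1 h at 25 °C, with 50 µM zinc acetate in the buffer, followed by washing.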
“AACTAACTGGCACGCCCTCATATCACCAACCTTTGGACCTCGGAGTCACCTAGTGCAG”: the binding signal was 11700 fluorescence intensity (a.u.). For “TTCAATCAATATATGTCAAACTCTCCCCACAGTCATCAAACGGAGTCACCTAGTGCAG”, the binding signal is 6960 fluorescence intensity (a.u.). Regarding “CAGATGAAATTGGTACTTATACTTGGCTTTCAGTACACACCGGAGTCACCTAGTGCAG”, the binding signal is 5400 fluorescence intensity (a.u.). In the case of “CCCAATTAAATGCCCGAATCATTCTTCTCGGCCCACTCTGCGGAGTCACCTAGTGCAG”, the binding signal was 4330 fluorescence intensity (a.u.). With “GCTAATCACGGACTAATTAGGCTTAAAAGATTCGTCTCGTCGGAGTCACCTAGTGCAG” the figure was 44500 fluorescence intensity (a.u.). With “TTAATTTACTTTTATAATCAAGTAGATAATACTATGTGACCGGAGTCACCTAGTGCAG”, the binding signal was 7760 fluorescence intensity (a.u.). With “ACAAATTTATGAACTTTAGTTGATTTGTAACTTTTCTAGACGGAGTCACCTAGTGCAG” the figure was 5230 fluorescence intensity (a.u.); with “TTGTGATTACTAAGAATACTGACATAGAACCCAACTTTCCCGGAGTCACCTAGTGCAG”, 9040 fluorescence intensity (a.u.).

With “AAGGCTAATTAATTAATTAATTAATAGTCGTAATTAAACACGGAGTCACCTAGTGCAG”, the binding signal was 50500 fluorescence intensity (a.u.). With “TAATGATTTGCCTCGCTTGAACCTTACACCTTAGTTGATCCGGAGTCACCTAGTGCAG” the figure was 10400 fluorescence intensity (a.u.); with “AAAATTATGAAGATATATCAATTTCACAAACATGCAAGTTCGGAGTCACCTAGTGCAG”, 5260 fluorescence intensity (a.u.); with “GAATGAATTGAAACAGACAATGCACACGCTTAGTCCATGACGGAGTCACCTAGTGCAG”, 5890 fluorescence intensity (a.u.).

For “ACTTGATGTGATATATCCTAGTCCAACGAATCTGGACAGCCGGAGTCACCTAGTGCAG”, the binding signal is 6940 fluorescence intensity (a.u.).

Consider “TTAGCTATTCAATAATTTGACAAGTTAAACTACTTATTGTCGGAGTCACCTAGTGCAG”, for which the binding signal is 5420 fluorescence intensity (a.u.). As for “ATGGATAGATTGAAACATCAAGGACTAAACTGTGTCTCAGCGGAGTCACCTAGTGCAG”, the figure is 46100 fluorescence intensity (a.u.); as for “GGATCAAATTGCCACATATGCGCCACGTTAATGCCACATCCGGAGTCACCTAGTGCAG”, 3520 fluorescence intensity (a.u.); as for “GTGATAATCATAACAAGTGATAACCTTGATGCACGGGAAACGGAGTCACCTAGTGCAG”, 5800 fluorescence intensity (a.u.). Turning to “ACATAATTATTTAGTATGGATATGTGTTGCAAGCTTGCAGCGGAGTCACCTAGTGCAG”, the binding signal is 20600 fluorescence intensity (a.u.). As for “TATGATATATTCTGTCAAACCTATGTACTATACACCTTACCGGAGTCACCTAGTGCAG”, the binding signal is 3560 fluorescence intensity (a.u.).

For “TGTAATTTCCGTCAACTAAAGCCCAATTGAATCAAGGTTCCGGAGTCACCTAGTGCAG”, the binding signal is 14000 fluorescence intensity (a.u.). As for “ATGGGTTAATTGCTTATTTGCAATGATTTATCAGGCTGGACGGAGTCACCTAGTGCAG”, the figure is 39600 fluorescence intensity (a.u.). As for “TCATCGTTGATTGAATCGCTTAATTTGGTGCATGCTTGGACGGAGTCACCTAGTGCAG”, the figure is 39000 fluorescence intensity (a.u.); as for “ACCAGTAATCAAATCTTTGCATTTACTCGCACATTTAGTACGGAGTCACCTAGTGCAG”, 3230 fluorescence intensity (a.u.). As for “TTTTGATTCATATATTACTGACATGTCTCGTTGTTTCGCCCGGAGTCACCTAGTGCAG”, the figure is 3530 fluorescence intensity (a.u.); as for “CAAATTGAACTATCCAATTATCATCCATCACCAACTCTCCCGGAGTCACCTAGTGCAG”, 19200 fluorescence intensity (a.u.); as for “TTATGTAATTAGTTTTGTAAGTAGTCTATATTTAATACCCCGGAGTCACCTAGTGCAG”, 12900 fluorescence intensity (a.u.). Consider “TCACAAATGACAGAACTTACAGGCTCTTCACCTCTCTACTCGGAGTCACCTAGTGCAG”, for which the binding signal was 3540 fluorescence intensity (a.u.). As for “ATATAATACTTAATTTATTATGCATTAATGAATGGTTCTGCGGAGTCACCTAGTGCAG”, the figure is 15900 fluorescence intensity (a.u.); as for “ACTGTTTAATTTGTTTGTTATCAATTTGCTACAAACCGCACGGAGTCACCTAGTGCAG”, 20700 fluorescence intensity (a.u.); as for “ATAATTTACTGTATAATTAGAGAAAATCCAAGAAATACCACGGAGTCACCTAGTGCAG”, 32300 fluorescence intensity (a.u.). Turning to “TAAAACTGTCGTTTAATTGGATCAGAATCAACCAGCTAACCGGAGTCACCTAGTGCAG”, the binding signal is 22400 fluorescence intensity (a.u.). As for “TTGATTTGATTCATCACCAGGATTACATTTATAGAGCATTCGGAGTCACCTAGTGCAG”, the figure is 25600 fluorescence intensity (a.u.); as for “GTATAATTTCCTTGTTTTAATTTCAATATGTTTATTTGTACGGAGTCACCTAGTGCAG”, 15100 fluorescence intensity (a.u.); as for “CATCCAATCAGTTTAGACAAGGTAAAGTCTCATTTTCACACGGAGTCACCTAGTGCAG”, 17800 fluorescence intensity (a.u.). As for “AAGAGAAGAAAATCATTTTCTAATTAACCATCCTGGTTCTCGGAGTCACCTAGTGCAG”, the figure is 5390 fluorescence intensity (a.u.). With “CTCTGCTTAATGATTAGAGTAAGATTAAAAGGTGATAGCGCGGAGTCACCTAGTGCAG” the figure was 13300 fluorescence intensity (a.u.); with “ATTATGATGATAGAGATAGGTTCTGCATATTTCTTTTACCCGGAGTCACCTAGTGCAG”, 5860 fluorescence intensity (a.u.); with “CTGATTGCGATTACGACGTAAACATCAGGACCGTAGGGACCGGAGTCACCTAGTGCAG”, 40800 fluorescence intensity (a.u.). As to “GTAAATTAGCTTGCGGATTGCAGCAGAATAGCTCATTCGGCGGAGTCACCTAGTGCAG”, the binding signal is 23700 fluorescence intensity (a.u.). With “AAAATTATATAATTAGAAACACGAGGATGCTAAGATTTGGCGGAGTCACCTAGTGCAG” the figure was 29300 fluorescence intensity (a.u.); with “TCGTTCATTTGACACTGATTGAAACAAATTAAATGAATTTCGGAGTCACCTAGTGCAG”, 30000 fluorescence intensity (a.u.); with “TACAGAGATAATTAGCAACAATAATGGTTCCATGGTGTAGCGGAGTCACCTAGTGCAG”, 19000 fluorescence intensity (a.u.).

The values above are taken from PMC7819943, “Rice protein-binding microarrays: a tool to detect cis-acting elements near promoter regions in rice”.
